Some of these densities may be calculated back from excess volumes.
Assay: xn = mol fraction of the nth substance listed
Conditions: 101 kPa

CCCCCCCCCCCC[N+](CC)(CC)CC.O=S(=O)([N-]S(=O)(=O)C(F)(F)F)C(F)(F)F + CO
mass density [kg/m3]
Conditions | x1 = 0.0108 | x2 = 0.0308 | x2 = 0.0798 | x2 = 0.1664 | x2 = 0.2879 | x2 = 0.4047 | x2 = 0.4925 | x2 = 0.5951 | x2 = 0.7403 | x2 = 0.9008
283.15 K | 846.8 | – | 1196.1 | 1192.4 | – | 1177 | 1168.6 | 1154.7 | 1121.6 | 1025.5
288.15 K | 842.1 | 1194.3 | 1192 | 1188.3 | 1181.7 | 1173 | – | 1150.5 | 1117.3 | –
293.15 K | – | 1190.2 | 1188 | 1184.3 | 1177.6 | 1168.9 | 1160.4 | 1146.3 | 1113 | 1016.6
298.15 K | – | – | 1184 | – | 1176.3 | – | 1156.3 | 1142.1 | – | 1012.1
303.15 K | 827.9 | 1182.2 | – | 1176.3 | 1169.6 | 1160.8 | 1152.2 | 1138 | 1104.4 | 1007.6
308.15 K | 823.2 | – | – | 1172.4 | 1165.6 | – | 1148.1 | – | 1100.1 | –
313.15 K | 818.4 | 1174.4 | 1172.2 | – | 1161.6 | 1152.7 | 1144 | 1129.6 | – | 998.5
318.15 K | – | 1170.5 | – | 1164.5 | 1157.7 | 1148.7 | – | 1125.5 | – | 993.9
323.15 K | – | 1166.6 | 1164.4 | 1160.5 | – | 1144.6 | 1135.8 | 1121.3 | 1087.3 | 989.4
328.15 K | 803.9 | 1162.7 | – | – | 1149.7 | 1140.6 | 1131.8 | 1117.2 | 1083 | 984.8
333.15 K | 799 | 1158.8 | 1156.6 | 1152.7 | 1145.7 | – | 1127.7 | 1113.1 | 1078.7 | 980.2
338.15 K | 794.1 | 1154.9 | 1152.7 | 1148.8 | 1141.8 | – | 1123.6 | 1108.9 | – | 975.6

CCCCCCCC[N+](CC)(CC)CC.O=S(=O)([N-]S(=O)(=O)C(F)(F)F)C(F)(F)F + CO
Conditions | mass density [kg/m3]
283.15 K, x2 = 0.0803 | 1256.9
283.15 K, x2 = 0.2016 | 1249.6
283.15 K, x2 = 0.2991 | 1242.2
283.15 K, x2 = 0.5998 | 1201.3
283.15 K, x2 = 0.7 | 1174.2
288.15 K, x1 = 0.0131 | 850.7
288.15 K, x2 = 0.0803 | 1252.7
288.15 K, x2 = 0.2016 | 1245.3
288.15 K, x2 = 0.2991 | 1238.1
288.15 K, x2 = 0.3982 | 1228.2
288.15 K, x2 = 0.5086 | 1213.6
288.15 K, x2 = 0.5998 | 1196.9
288.15 K, x2 = 0.7 | 1169.8
288.15 K, x2 = 0.7996 | 1125.9
288.15 K, x2 = 0.9001 | 1039.1
293.15 K, x2 = 0.0803 | 1248.5
293.15 K, x2 = 0.2016 | 1241.2
293.15 K, x2 = 0.2991 | 1233.9
293.15 K, x2 = 0.3982 | 1224
293.15 K, x2 = 0.5086 | 1209.3
293.15 K, x2 = 0.5998 | 1192.6
293.15 K, x2 = 0.7 | 1165.4
293.15 K, x2 = 0.7996 | 1121.3
293.15 K, x2 = 0.9001 | 1034.5
298.15 K, x1 = 0.0131 | 841.2
298.15 K, x2 = 0.0803 | 1244.4
298.15 K, x2 = 0.2016 | 1237.1
298.15 K, x2 = 0.2991 | 1229.7
298.15 K, x2 = 0.3982 | 1219.8
298.15 K, x2 = 0.5086 | 1205
298.15 K, x2 = 0.5998 | 1188.2
298.15 K, x2 = 0.7 | 1160.9
298.15 K, x2 = 0.7996 | 1116.8
303.15 K, x1 = 0.0131 | 836.4
303.15 K, x2 = 0.0803 | 1240.3
303.15 K, x2 = 0.5086 | 1200.7
303.15 K, x2 = 0.7 | 1156.5
303.15 K, x2 = 0.7996 | 1112.3
303.15 K, x2 = 0.9001 | 1025.2
308.15 K, x2 = 0.0803 | 1236.3
308.15 K, x2 = 0.2016 | 1228.9
308.15 K, x2 = 0.2991 | 1221.4
308.15 K, x2 = 0.5086 | 1196.4
308.15 K, x2 = 0.5998 | 1179.5
308.15 K, x2 = 0.7 | 1152.1
308.15 K, x2 = 0.9001 | 1020.5
313.15 K, x1 = 0.0131 | 826.9
313.15 K, x2 = 0.0803 | 1232.2
313.15 K, x2 = 0.2016 | 1224.8
313.15 K, x2 = 0.3982 | 1207.1
313.15 K, x2 = 0.5086 | 1192.2
313.15 K, x2 = 0.5998 | 1175.2
313.15 K, x2 = 0.7 | 1147.7
313.15 K, x2 = 0.7996 | 1103.3
313.15 K, x2 = 0.9001 | 1015.8
318.15 K, x1 = 0.0131 | 822
318.15 K, x2 = 0.0803 | 1228.1
318.15 K, x2 = 0.2016 | 1220.7
318.15 K, x2 = 0.2991 | 1213.1
318.15 K, x2 = 0.3982 | 1202.9
318.15 K, x2 = 0.5086 | 1187.9
318.15 K, x2 = 0.7 | 1143.3
318.15 K, x2 = 0.7996 | 1098.8
318.15 K, x2 = 0.9001 | 1011.2
323.15 K, x1 = 0.0131 | 817.2
323.15 K, x2 = 0.0803 | 1224.1
323.15 K, x2 = 0.2016 | 1216.6
323.15 K, x2 = 0.2991 | 1209
323.15 K, x2 = 0.3982 | 1198.7
323.15 K, x2 = 0.5086 | 1183.6
323.15 K, x2 = 0.5998 | 1166.6
323.15 K, x2 = 0.7 | 1138.9
323.15 K, x2 = 0.7996 | 1094.2
323.15 K, x2 = 0.9001 | 1006.5
328.15 K, x1 = 0.0131 | 812.3
328.15 K, x2 = 0.2013 | 1212.5
328.15 K, x2 = 0.2991 | 1204.8
328.15 K, x2 = 0.5086 | 1179.4
328.15 K, x2 = 0.5998 | 1162.2
328.15 K, x2 = 0.7 | 1134.5
328.15 K, x2 = 0.7996 | 1089.7
333.15 K, x1 = 0.0131 | 807.3
333.15 K, x2 = 0.0803 | 1216
333.15 K, x2 = 0.2016 | 1208.4
333.15 K, x2 = 0.2991 | 1200.7
333.15 K, x2 = 0.3982 | 1190.4
333.15 K, x2 = 0.5086 | 1175.2
333.15 K, x2 = 0.5998 | 1157.9
333.15 K, x2 = 0.7 | 1130.1
333.15 K, x2 = 0.7996 | 1085.2
333.15 K, x2 = 0.9001 | 997.1
338.15 K, x2 = 0.0803 | 1212
338.15 K, x2 = 0.2016 | 1204.3
338.15 K, x2 = 0.2991 | 1196.6
338.15 K, x2 = 0.3982 | 1186.2
338.15 K, x2 = 0.5086 | 1170.9
338.15 K, x2 = 0.7 | 1125.7
338.15 K, x2 = 0.7996 | 1080.6
338.15 K, x2 = 0.9001 | 992.3

CCCCCC[N+](CC)(CC)CC.O=S(=O)([N-]S(=O)(=O)C(F)(F)F)C(F)(F)F + CO
mass density [kg/m3]
Conditions | x2 = 0.1188 | x2 = 0.2988 | x2 = 0.3842 | x2 = 0.4936 | x2 = 0.599 | x2 = 0.6971 | x2 = 0.8006 | x2 = 0.8995 | x2 = 0.9017 | x2 = 0.975
283.15 K | 1293.8 | 1278.6 | – | – | 1231.3 | 1200.7 | 1149.4 | – | 1051.5 | 896.9
288.15 K | 1289.5 | 1274.3 | – | 1248.8 | 1226.8 | 1196.1 | 1144.8 | 1049.9 | 1046.7 | 892.1
293.15 K | 1285.3 | 1270 | 1260.4 | 1244.4 | – | 1191.6 | 1140.2 | – | 1042 | 887.4
298.15 K | 1281.1 | 1265.7 | 1256.1 | – | – | 1187.1 | 1135.6 | 1040.5 | 1037.3 | 882.6
303.15 K | 1276.9 | 1261.4 | 1251.7 | 1235.6 | 1213.4 | 1182.5 | 1130.9 | 1035.7 | – | 877.8
308.15 K | – | 1257.2 | – | 1231.3 | 1209 | 1178 | – | 1031 | 1027.8 | 873
313.15 K | 1268.5 | – | – | – | 1204.5 | 1173.5 | 1121.7 | 1026.3 | 1023 | 868.2
318.15 K | 1264.3 | 1248.6 | 1238.8 | 1222.5 | 1200.1 | – | 1117 | 1021.5 | 1018.3 | 863.3
323.15 K | 1260.1 | 1244.4 | 1234.5 | 1218.2 | 1195.7 | 1164.4 | – | 1016.7 | – | 858.5
328.15 K | – | 1240.1 | 1230.2 | 1213.8 | 1191.2 | 1159.9 | 1107.8 | 1011.9 | – | 853.6
333.15 K | 1251.8 | 1235.9 | 1225.9 | 1209.5 | 1186.8 | 1155.4 | 1103.1 | – | – | 848.6
338.15 K | 1247.6 | 1231.7 | 1221.6 | 1205.1 | 1182.4 | – | 1098.4 | 1002.3 | 999.1 | 843.6

— a compilation of properties of binary mixtures (doi:10.1016/j.fluid.2013.11.025)
